Measured values: the RNAGym collection of RNA variant scans (doi:10.1073/pnas.2313332121)
Variants at the background level are over-represented here.

B1: TPR 5TU (parent)
chain: GGAUCUUCUCGAUCUAACAAAAAAGACAAAUCUGCCACAAAGCUUGAGAGCAUCUUCGGAUGCAGAGGCGGCAGCCUUCGGUGGCGCGAUAGCGCCAACGUUCUCAACUAUGACACGCAAAACGCGUGCUCCGUUGAAUGGAGUUUAUCAUG

Variants of: B1
Test: polymerase ribozyme fitness, log enrichment relative to wild type (log ratio); higher = more active; in vitro selection for triplet polymerase activity
In short: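 Genotype fitness is the logarithm of its enrichment divided by wild-type enrichment, using inverse-variance-weighted averages of replicates. That logarithm is base 2. Enrichment was measured by Illumina sequencing of input and output libraries from one triplicate in vitro selection round, with frozen incubation at −7 °C, on PCR-built, transcribed mutant libraries of each subunit of a heterodimeric triplet polymerase ribozyme, retaining genotypes with ≥10 input reads and ≥1 read per output.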

| Variant | polymerase ribozyme fitness (log ratio) |
| --- | --- |
| A22U C27G A29C C51A A60G U61G C93G | ≤ -4.2 |
| A23C C93U G141U | ≤ -4.2 |
| A23U U134A G136A G143U A150G | ≤ -4.2 |
| A23U G68C C76G G80C A89U U148G | ≤ -4.2 |
| A23C G25A U31C G50U C75G G92A C99G | ≤ -4.2 |
| A23U G70U C72G G140C | ≤ -4.2 |
| A22U C35U C51A G58A C75A C96U G152A | ≤ -4.2 |
| A23G C27U C125A G143U | ≤ -4.2 |
| A23G A64G G81A C108A G124U G143U | ≤ -4.2 |
| A23C A30G A40G U45A C72A C79G U82A | ≤ -4.2 |
| A22U A37U G42C U55A C72G A115G C149U A150G | ≤ -4.2 |
| A23U U55A U77C C108U | ≤ -4.2 |
| A23U C35U C93G U101G A138G | ≤ -4.2 |
| A23U C36A U55A G58C G62C G88A U139G | ≤ -4.2 |
| A23C A49U G83U U151C | ≤ -4.2 |
| A23U A64C G68C | ≤ -4.2 |
| A22G U33A A49C G68A C79G C85U | ≤ -4.2 |
| A22C C36A C75A C76G G83C G117C G141U A150G | ≤ -4.2 |
| A22U C57G G58A C114G | -2.5 |
| A22U U55A A115C C123U U130G | -2.84 |
| A23C C63U A64G G83C U90G C116A | ≤ -4.2 |

| Variant | polymerase ribozyme fitness (log ratio) |
| --- | --- |
| A21U G71C C79G A107U A142C | ≤ -4.2 |
| A23G G62A A73U C76G G88A C105U A106G | ≤ -4.2 |
| A21U G58A U77A | ≤ -4.2 |
| A22U A29U C95U A119C C132U | ≤ -4.2 |
| A22U G46A A115G | -1.54 |
| A23C A37C G143C | ≤ -4.2 |
| A22U A39C A47C A52C G58C C76G A89U A91G C95G G124C | ≤ -4.2 |
| A24C A29C U44G G80A A89G C118G | ≤ -4.2 |
| A22U C72U A91C U130A | ≤ -4.2 |
| A22C U61A G88A A107C A110C C123G G140A | ≤ -4.2 |
| A22U G48U U55A A60G C103G A121U U135C G143U A150C | ≤ -4.2 |
| A23U G42U A66C C72A C99U C123U | ≤ -4.2 |
| A21U U90A C95U U134G | ≤ -4.2 |
| A23C U44A U45A G74A A91G | ≤ -4.2 |
| A22G G70U C87A U109G A138U C149A | ≤ -4.2 |
| A22G G58A A120G C123A C129G | -3.06 |
| A22G C51U U78G C95U A107G U146C | ≤ -4.2 |
| A23U G74U U82G | ≤ -4.2 |
| A23U U31C C93G C129G U134G U148G | ≤ -4.2 |
| A22U A28U C57U U77G C85G G92U | ≤ -4.2 |
| A22C U44A C87U C103U | ≤ -4.2 |

| Variant | polymerase ribozyme fitness (log ratio) |
| --- | --- |
| A23U C85U U102A A107U U130G U135G A138C | ≤ -4.2 |
| A23U U55A G128U | ≤ -4.2 |
| A22U G34A C103A G126U | ≤ -4.2 |
| A23G A49G C51A G70A G136A | ≤ -4.2 |
| A23C A37C U55A G65U G128U G143C U148A | ≤ -4.2 |
| A22C C27U U44A A47C U82C C95U A142C | ≤ -4.2 |
| A22U G59C G92A U104G C123U G133U | ≤ -4.2 |
| A23C G80C C87G U146G G152A | ≤ -4.2 |
| A22C C51A G58C G68A G86C A110U A115G | ≤ -4.2 |
| A23U A52C U55A G81U G84A C99A U127C U145G | ≤ -4.2 |
| A22G A52C U56A C85A G128C A150G | ≤ -4.2 |
| A23C C36A | ≤ -4.2 |
| A23G A24G C36A A40U C54A A64G U82G C93G | ≤ -4.2 |
| A21U G128A | -3.26 |
| A22C A30G U53G C76G C85A C95U C105U G124C A142U C149G | ≤ -4.2 |
| A22U A37U G133U G143C | ≤ -4.2 |
| A22G G34C A66U G94U G100C A110C G126A U139C | ≤ -4.2 |
| A23U U82C | ≤ -4.2 |
| A22G C85G A150G | -3.09 |
| A22G A41C G50A C95U U101G | -1.78 |
| A23U A29U G59A A60C A142U | ≤ -4.2 |

| Variant | polymerase ribozyme fitness (log ratio) |
| --- | --- |
| A23C A39U G80A | ≤ -4.2 |
| A23U C38G C75A C79U U82G C93A | ≤ -4.2 |
| A23G C76G G81A U90G C93U A98U A122U | ≤ -4.2 |
| A23C U31G C108G A115G | ≤ -4.2 |
| A23C G46U U56A A64C G80U C99A C116G A121U | ≤ -4.2 |
| A22G G124A | 0.539 |
| A23U G50C C76A G84A U90G C129A A137G | ≤ -4.2 |
| A23G C79U C93U A122U | ≤ -4.2 |
| A23C U56G U82A C125A U139G | ≤ -4.2 |
| A22C C87G | ≤ -4.2 |
| A22C A26G A28C C43U C95G C96A A150U | ≤ -4.2 |
| A22C G42C U53A C76U G88U G94U | ≤ -4.2 |
| A22C C85A U104G | ≤ -4.2 |
| A23C U53A G83C A91G A147U | ≤ -4.2 |
| A23C C103U | ≤ -4.2 |
| A22U G25U G46A C85A C93A C125A | ≤ -4.2 |
| A23C G68A | ≤ -4.2 |
| A21U U82G C93U U135G U148G | ≤ -4.2 |
| A23U G25U A29U C43U G58U G86A A107G | ≤ -4.2 |
| A22U A29G A150G | ≤ -4.2 |
| A22U C87U | 0.455 |
